PubChem BioAssay AID1347417 (National Center for Advancing Translational Sciences (NCATS), 2020)
Among all 120,000 compounds or so, about 5,300 (4.4%) were called active. Inconclusive means that the source gave no clear call. Such entries were picked first, then a sample of the others. The call rests on the fitted dose curve; in most records, active means well fitted inhibition curve with a large enough effect; inconclusive means small, poorly fitted or top-dose-only effect; inactive means no such curve, though single readings can be large or run the other way. Where the call is inconclusive, the potency comes from a doubtful curve fit.

Experiment: qHTS Primary assay for Inhibitors of Plasmodium falciparum Dd2 growth in vitro; further: nearly all actives have a fitted effect of over 65% in size;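 on activity, negative = inhibition: plate controls were DMSO vehicle for no effect and reference drug for full effect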
Conditions: P. falciparum Dd2 growth, SYBR Green, 72 h; activity, negative = inhibition: at 28.9 µM (top of the series) unless noted; series mostly up to 28.9 µM
Outline: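 Readout: SYBR Green fluorescence, 485 nm excitation, 535 nm emission, after ~16 h lysis at 37C. Before that, Dd2-infected red cells (2.5% hematocrit) grew 72 h with compound, 29 uM top final concentration.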
Potency means the concentration at half of the fitted maximal effect; tags describe the fitted curve by direction and shape.

Structure (SMILES)	Potency	activity, negative = inhibition	outcome
N#Cc1cccc(CN2CCCN(S(=O)(=O)c3ccccc3)CCC(=O)NCC2)c1	inconclusive: 3.98 µM [inhibitor, partial curve]		
Cc1nc(C2CCCN(C(=O)Cc3ccc(S(C)(=O)=O)cc3)C2)n[nH]1 (stereo unspecified)		inactive: 19.8%	
CO[C@H]1C(=O)N(C(C)C)[C@H]1C1CCN(S(=O)(=O)c2c(C)noc2C)CC1		inactive: 13.6%	
Cc1cccc(C)c1OCCn1c(CCNC(=O)C2CCCCC2)nc2ccccc21	inconclusive: 11.2 µM [inhibitor, single point]		
Cc1noc(C)c1S(=O)(=O)N1CCC2(C1)C(=O)Nc1ccccc12 (stereo unspecified)		inactive: 16.1%	
CCSc1nc(-c2cccc(Cl)c2)nc2c1Cc1c(CO)cnc(C)c1O2	inconclusive: 10 µM [inhibitor, single point]		
CC(=O)N1CCC(Cc2ncc(C)n2Cc2ccccc2)C1 (stereo unspecified)		inactive: -13.5%	
CCCCN1C(=O)C(O)(CC(=O)c2ccc(CC)cc2)c2cc(Br)ccc21 (stereo unspecified)	inconclusive: 17.8 µM [inhibitor, single point]		
CCCN(C(=O)c1cc2c(=O)oc3ccc(C)cc3c2s1)c1ccc(OCC)cc1		inactive: 61.1%	
Cc1cccc(C)c1-c1nc(C(=O)NCCc2ccc(Cl)cc2)n2ccccc12	inconclusive: 11.2 µM [inhibitor, single point]		
COc1ccc(CNC(=O)N2CCC(Cc3ncc(C)n3C(C)C)C2)cc1 (stereo unspecified)	inconclusive: 11.2 µM [inhibitor, partial curve]		
Cc1ccc2c(c1)C(c1ccccc1)N(C(=O)COc1ccc(Cl)cc1Cl)CC(=O)N2 (stereo unspecified)	inconclusive: 11.2 µM [inhibitor, single point]		
CCOc1ccc2nc(N(Cc3cccnc3)C(=O)c3cccs3)sc2c1	inconclusive: 11.2 µM [inhibitor, single point]		
COc1cccc(C(=O)N2CCCC(c3nn(-c4ccc(F)cc4)c(=O)[nH]3)C2)c1 (stereo unspecified)	inconclusive: 17.8 µM [inhibitor, single point]		
COc1ccc(N=C2S[C@H]3[C@H]([C@@H](O)[C@H](O)C[C@@H]3C(N)=O)N2Cc2cccs2)cc1		inactive: -16% [at 44.1 µM]	
Cc1cc(CC(C)n2ccnc2-c2cc3n(n2)CCCNC3)n[nH]1 (stereo unspecified)		inactive: -2.86%	
Cc1ccccc1Cn1c2ccccc2c2cnn(CC(=O)NCc3cccc(Cl)c3)c(=O)c21		inactive: -5.06%	
CCOC(=O)c1ccc(CN(Cc2ccc(F)cc2)S(=O)(=O)c2ccc(F)c(C(=O)Nc3cc(Cl)ccc3OC)c2)cc1	inconclusive: 0.891 µM [inhibitor, full curve]		
CCCCC(=O)N1c2ccccc2C(C)(c2ccccc2)CC1(C)C (stereo unspecified)		inactive: -20.4%	
COc1ccc(NC(=O)N2[C@H]3CC[C@@H]2c2cncnc2C3)c(C)c1		inactive: 19.6%	
COc1ncccc1-c1cc(-c2c(C)noc2C)c2cncn2c1	active: 10 µM		
Cc1cc(C(=O)N2CCC(Cc3nc(-c4cccnc4)n[nH]3)C2)nn1C (stereo unspecified)	inconclusive: 3.98 µM [inhibitor, single point]		

Structure (SMILES)	Potency	activity, negative = inhibition	outcome
Cn1c(=O)c2cc(S(=O)(=O)NC(Cc3ccccc3)C(=O)Nc3ccc(F)cc3)ccc2n(C)c1=O (stereo unspecified)	inconclusive: 8.91 µM [inhibitor, single point]		
Cc1ccc(NC(=O)Nc2ccc(C)n(CC(=O)NC3CCCC3)c2=O)cc1		inactive: -3.39%	
O=C(c1ccco1)N1CCC[C@H]1c1nc(-c2ccc(F)cc2)no1	inconclusive: 8.91 µM [inhibitor, single point]		
Cc1ccc(OCc2nc(C3CCCN3C(=O)NC(C)C)no2)cc1 (stereo unspecified)	inconclusive: 14.1 µM [inhibitor, partial curve, poor fit]		
Cc1ccc(CN2CC3(COCC2=O)CN(c2cnccn2)C3)cc1C	inconclusive: 5.62 µM [inhibitor, single point]		
COC(=O)[C@@H]1Cc2c([nH]c3ccccc23)[C@H]2C[C@@H](NCCN(C)C)C[C@@H](c3ccc(F)cc3)N21	inconclusive: 2.82 µM [inhibitor, single point]		
O=C1CC(c2ccccc2)Sc2ccccc2N1Cc1ccccc1F (stereo unspecified)	inconclusive: 17.8 µM [inhibitor, single point]		
CC(C)(C)NC(=O)Cn1ccn2nc(-c3ccccc3)c(CO)c2c1=O	inconclusive: 15.8 µM [inhibitor, single point]		
COc1cccc(CN2CCC(N3CC(OCC4CC4)C34CCCCC4)CC2)n1 (stereo unspecified)	inconclusive: 0.0631 µM [inhibitor, full curve, poor fit]		
O=C(O)CCn1ncc2cc(OC3CCN(C(=O)OC4CCCC4)CC3)ccc21	inconclusive: 15.8 µM [inhibitor, single point]		
COc1c(F)cccc1C(=O)N1CCC(Cc2ccc(C(=O)O)cc2)C1 (stereo unspecified)		inactive: -15.3%	
CCN1c2cc(C(=O)NCc3ccccc3C(F)(F)F)ccc2C(=O)N2CCCCCC21 (stereo unspecified)	inconclusive: 11.2 µM [inhibitor, partial curve, poor fit]		
Fc1ccccc1Nc1cnc2ccc(-n3ccnc3)nn12	inconclusive: 6.31 µM [inhibitor, partial curve, poor fit]		
Oc1cccc(-c2nc3ncccn3c2Nc2cccc(C(F)(F)F)c2)c1	inconclusive: 17.8 µM [inhibitor, single point]		
CCOc1ccc(CC(=O)N2CCC[C@H]2c2nc(-c3ccc(OC)c(OC)c3)no2)cc1	inconclusive: 0.0708 µM [inhibitor, full curve, poor fit]		
Cn1ccnc1C(=O)N1CCC2(CC1)CC(N(Cc1ccccc1)C1CC1)CCO2 (stereo unspecified)	inconclusive: 17.8 µM [inhibitor, single point]		
CN(C)c1cccc(-c2cc(C(=O)NCCc3ccccn3)c3c(c2)ncn3C)c1	inconclusive: 31.6 µM [inhibitor, partial curve, poor fit]		
CCN(CC)S(=O)(=O)c1ccc2c(c1)N(CC(=O)Nc1ccc(F)cc1F)C(=O)C1CCCN21 (stereo unspecified)	inconclusive: 10 µM [inhibitor, single point]		
Cc1ccc(Cn2c(C3CCN(C(=O)c4ccccc4)CC3)n[nH]c2=O)cc1	inconclusive: 11.2 µM [inhibitor, partial curve, poor fit]		
O=C(Nc1ccccc1)N1CC(Oc2ccc(-c3noc(-c4ccncc4)n3)cc2)C1		inactive: -17.9%	
CC1(COc2ccccc2)COc2ccc(C(=O)NCCOc3ccccc3)cc2N1 (stereo unspecified)	inconclusive: 31.6 µM [inhibitor, single point]		
COc1ccc(NC(=O)c2ccc(-c3nnc4ccc(NC(=O)C5CC5)cn34)cc2)cc1	inconclusive: 0.199 µM [inhibitor, full curve, poor fit]		

Structure (SMILES)	Potency	activity, negative = inhibition	outcome
Cc1cccc([S+](=O)([O-])N2CCC3(CC2)OCCN(C)C3=O)c1	inconclusive: 31.6 µM [inhibitor, single point]		
Cc1cc(C)c2oc(-c3ccc(NC(=O)c4cc(Br)ccc4Cl)cc3)nc2c1	active: 10 µM		
C[C@@H]1CN(C(=O)CCCc2ccccc2)C[C@@]1(O)C1CC1		inactive: -4.69%	
NC1CCCCN(C(=O)c2scc3c2CCCC3)C1 (stereo unspecified)	inconclusive: 1 µM [inhibitor, partial curve, poor fit]		
CCCN(CC1CCOC1)C(=O)NC1CCCCC1 (stereo unspecified)			inactive [at 5.79 µM]
Cc1ccc(C2NC(=O)N(CC(=O)Nc3ccccc3C(C)C)C3=C2C(=O)OC3)cc1 (stereo unspecified)		inactive: -11.9%	
O=C(c1cccs1)N1CCc2nc(OCC3CC3)ccc2C1	inconclusive: 8.91 µM [inhibitor, single point]		
CN(C)C(=O)c1nc(-c2ccc(S(C)(=O)=O)cc2)c2cnccn12		inactive: -2.68%	
COc1c[nH]c(CN2CCN(C)C3(CCC(=O)N(C)CC3)C2)cc1=O (stereo unspecified)		inactive: -10.8%	
CN(C)Cc1cc(CC2(NCc3cc4ccccc4o3)COC2)no1			inactive [at 44.1 µM]
O=C(Nc1ccc(F)c(Cl)c1)C1CCCN(c2ncnc3onc(-c4ccc(F)cc4)c23)C1 (stereo unspecified)	inconclusive: 17.8 µM [inhibitor, single point]		
CC(C)C(=O)N1Cc2ccccc2CC2(CCN(Cc3ccncc3)C2)C1 (stereo unspecified)	inconclusive: 15.8 µM [inhibitor, partial curve, poor fit]		
CCC(=O)N1c2ccccc2CC1C(=O)NCCCN1CCN(c2ccccc2)CC1 (stereo unspecified)	inconclusive: 14.1 µM [inhibitor, partial curve, poor fit]		
Cc1ccccc1S(=O)(=O)N1CCCC2(C1)Nc1cccnc1NC2=NC1CCCC1 (stereo unspecified)	inconclusive: 0.447 µM [inhibitor, partial curve, poor fit]		
Cc1nnc2n1CCC(N(C)S(=O)(=O)c1ccccc1F)CC2 (stereo unspecified)	inconclusive: 2.82 µM [inhibitor, single point]		
CCN(c1cccc(C)c1)C(CNS(=O)(=O)c1ccccc1)c1ccccc1 (stereo unspecified)	inconclusive: 17.8 µM [inhibitor, single point]		
COCCOc1ncccc1-c1noc([C@@H]2CCCN2Cc2cccc(C#N)c2)n1	inconclusive: 5.01 µM [inhibitor, full curve, poor fit]		
CC(=O)N1Cc2ccccc2OC2(CCN([S+](C)(=O)[O-])CC2)C1		inactive: 10.7%	
CCCCC(=O)Nc1nnc(S(=O)(=O)N2CCCCCC2)s1		inactive: -15.7%	
Cc1ccc(Cc2c(C)nc3c(C(=O)N4CCC(Cc5nncn5CC5CC5)CC4)cnn3c2C)cc1	inconclusive: 3.98 µM [inhibitor, partial curve, poor fit]		
COc1ccccc1C(=O)NC1CCN(c2cc(C(F)(F)F)nc(C)n2)CC1		inactive: -3.84%	
COCCCn1c(SCc2ccccc2F)nc2c(sc3ccccc32)c1=O	inconclusive: 8.91 µM [inhibitor, partial curve, poor fit]		
